Results: the supplement of paper PMC11417369
This is one part of the list.

Each sequence was assayed on PfHDP1 homeodomain (GST-tagged) (assay: gcPBM binding intensity (ln(normalized median fluorescence intensity)); higher = stronger DNA binding).
How it was run: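 GST-fused DNA-binding domains of P. falciparum, expressed in E. coli, were applied at about 25 μg on average for 1 h to an Agilent 4 × 180k array of primer-extended double-stranded 36-bp intergenic genomic probes and negative controls. Binding intensity is the highest Masliner-normalised natural-log median intensity across replicate spots of either probe orientation, measured with Alexa488 anti-GST antibody and a 488 nm scan.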

| Sequence | gcPBM binding intensity (ln) |
| --- | --- |
| ATATAAACACTGAATGCATGCACATATATATATATA [TGCATGCA_site940] | 9.37 |
| GGGGGGGGAGGGTGAATACACACGTAATAATCATAA [CACACA_site1716] | 9.28 |
| CGTATTATTATATAAACACACAAGGGGGCATGTATA [CACACA_site745] | 7.74 |
| ATGTGTATATGTGTGGGTACTTAATTTTTTTCTTTA [XGTACX_site5351] | 7.17 |
| TATCTTTTTTTTAATACACACAAATATATGAAAGTA [CACACA_site4161] | 6.64 |
| GTTATAATTGAACTAGTGCATAAATATATTTTAATT [GTGCAC_site9851] | 9.15 |
| AATTCTGGCAAAATAACACACACATATATTTTATAT [CACACA_site9064] | 6.58 |
| AGGATATATATATTCACACACACATGGAAATATATA [CACACA_site383] | 6.39 |
| ATATATATTTTATATTGTACTTATTATTTTTAGGGC [XGTACX_site723] | 6.12 |
| TATGAATATCTATACACACACATATAAATACACGCT [CACACA_site6853] | 6.7 |
| TTATATATTTTTAGGTGTACTTTTTTTTTTTTTTTT [XGTACX_site8164] | 6.4 |
| TATTTTTTGAAAAGTTCACACATCCAACTCGAGTTG [CACACA_site4412] | 6.41 |
| AAAAAAAAAAAAAATACACACATATTTTATAGGGGA [CACACA_site3261] | 6.41 |
| AAAATAATGAAATGAAAAAAAAAAATTTAGATTCTA [CACACA_negctrl_site1385] | 6.04 |
| GTCATATATTTATGTACACACATATATATATTTATA [CACACA_site4911] | 6.44 |
| TAGATGTAAGTACATACACACATATATAAATAAATA [CACACA_site8528] | 6.4 |
| CTAATTGTTATTTTGTGTACTTATCATTCGAAATAT [XGTACX_site7963] | 6.57 |
| AAAAAACAAATAAGTAAACACACATATATAATATAT [CACACA_site8830] | 6.68 |
| ATATATATTTTAATTACACACAAAAAAAAAAAAAAA [CACACA_site4778] | 6.42 |
| TATTCTAAGATAAGTGGTACTTATATATAATATATA [XGTACX_site8316] | 6.31 |
| TATTTTTAATTTTTTAATGGTTTAATATTTTTATAT [CACACA_negctrl_site1186] | 6.01 |
| ATATATATATATATATGTACATAAACATATATATAT [XGTACX_site1064] | 9.35 |
| TCTTTAGCTTCTTCTTTTTTTTTTTTTTTTTTTTTT [XGTACX_negctrl_site518] | 6.98 |

| Sequence | gcPBM binding intensity (ln) |
| --- | --- |
| TATAATATACTATGTGGTACATATATATATTTATAG [XGTACX_site4556] | 6.1 |
| ATATATAATATTGGTGGTACAAGGGTATTTTATATT [XGTACX_site8215] | 6.6 |
| GTATAATTGGAAATTACACACCTTAGAATGTAACAT [CACACA_site4059] | 6.09 |
| ATTATAATATATATATGTACATATATATATAATACT [XGTACX_site5092] | 6.48 |
| TCATTTATTTTTCTTTGTACACAAAAGTTTTTATGT [XGTACX_site690] | 6.78 |
| CATATGTTATATGTAGTGCATTACTATAGGATTTAT [GTGCAC_site9860] | 9.47 |
| TATTTTGCAAAATGTGCATGTTGTGTATTATGTGAC [TGCATGCA_site59] | 10.3 |
| CACAAATATACAAATACACACAAATATACAAATACA [CACACA_site2385] | 6.86 |
| GTAAAATTTACATAGAGTACTTATATTTTTTTCTGC [XGTACX_site3414] | 6.41 |
| TTGTCTACAAAAATGTGCTTCTAATCATACGACTTG [CACACA_negctrl_site46] | 6.03 |
| TACATATATTATTGCACACATATAAAATACCCCCAA [CACACA_site3895] | 10.8 |
| CAGTTTACTAATATTGCACACGAATATGAAAAAGAG [CACACA_site8941] | 9.89 |
| TTTTTCACACTTCAAAAGTGTCAACCTTCTATTCTC [TGCATGCA_negctrl_site489] | 6.03 |
| TTATCATTTGCCATTGTGCACTTATATGCTCACATT | 10.3 |
| AAAAAAAATTATGAAGTGCATTAGTGAATTTGATTG | 9.09 |
| TTTTTTTTTCAAGAGGTGCGTGTATTTTAACAAAAA | 6.8 |
| AAAAAAAATAAAATAATAAAAATTATGAATATATAT [CACACA_negctrl_site280] | 6.34 |
| TGGAGGTCAGTTCACAGTACCCAGTAACTCTACGGA [XGTACX_site2549] | 5.97 |
| ATCATTCCACTTTTCACACATATCTCTATTTCTATC [CACACA_site4723] | 7.25 |
| AAATGTATAGGAATAATAATAAAAAAAAAAAAAAAT [CACACA_negctrl_site1793] | 6.44 |
| ATAGGTAATAATAATACACACGGTGAAATATAGATG [CACACA_site9336] | 6.68 |
| TCTTGTCTACCTTGTATTTAATATTTACATATATAA [TGCATGCA_negctrl_site320] | 7.17 |
| TATTTCTTATTACATACACACATATACATAGATGAC [CACACA_site5729] | 6.84 |

| Sequence | gcPBM binding intensity (ln) |
| --- | --- |
| TTCTTGTATATATTTTGTACATATATACCATTTTAG [XGTACX_site2409] | 6.64 |
| TATATGTTTTTATGTACACACTTTTAACCTAAGAAA [CACACA_site4769] | 6.68 |
| TATTTGTAAAAATTGTGTACTTAGAAAATTCCAAAA [XGTACX_site6007] | 6.04 |
| ATTTTTTTTTTCTTTTTTTTTTGTTTTTCTCCTTTT [CACACA_negctrl_site1182] | 6.06 |
| ATTTTTTTTATTATTACACACATATAATAAAAAAAT [CACACA_site1802] | 6.69 |
| ATATTGTAAGTAAACACACACACATATATCTGTATA [CACACA_site4541] | 6.43 |
| TAAAGTGTAAAATTCACACACATATATATATATATA [CACACA_site4883] | 9.47 |
| GTATAATTTATTGAACGTACACATATATATATGTAT [XGTACX_site1395] | 6.44 |
| AATAAAATGCAATACATTTTGTTATATAATGTTGTT [CACACA_negctrl_site1525] | 6.99 |
| CACAATGTAGTGTATAAATACAATAAAAGGTTGTAT [CACACA_negctrl_site700] | 6.47 |
| TATTTATAAAAATATACACACATACAAATATGCATA [CACACA_site4555] | 6.59 |
| TATAAGTTGATATATACACACATATATAAATATGTA [CACACA_site7526] | 6.4 |
| CTTATTTAATGTATCACACACGAGAATAAAAAATAA [CACACA_site3020] | 6.52 |
| ATGGTTTTCAGAAAAACATGCATACAATAATAAAAA [TGCATGCA_site815] | 7.22 |
| TTTAAAATAACCAAAAACAAAAAGAAACACAAATGT [GTGCAC_negctrl_site705] | 6.95 |
| AAAAAAAAAATTTACTGTACACATTTGGGATACTCA [XGTACX_site5191] | 5.98 |
| GATCAAATAGAAAATACATGCAATGTGTGAAATAAC [TGCATGCA_site835] | 7.33 |
| TTTCAAATGGAATGTGTGCACATAAATGTAAATAAA | 10.8 |
| ATTTATATATAGGTGTGTCCACAAATAGTATGTAAA [XGTACX_site2916] | 6.59 |
| GTATATAGTATGTAGAGTACTAATTTCCATATGTTC [XGTACX_site7816] | 6.35 |
| CAATATTTTCATAGATGTACTTTGGACTTATTATAT [XGTACX_site4849] | 6.17 |
| AATTAATATATAAATAATAAAAAAAAATATATAAAC [XGTACX_negctrl_site280] | 6.63 |
| TAAATAAAAGATACGAGTACGTATGATGTTAACCTC [XGTACX_site8840] | 6.26 |

| Sequence | gcPBM binding intensity (ln) |
| --- | --- |
| ATGAAAAAAAATAAAAAATATATATATATATATATA [CACACA_negctrl_site236] | 9.49 |
| TATAACCATATATACACACACATATAAATATAAATA [CACACA_site7089] | 6.82 |
| TATATTTTAATTTGAAGTACTAATATTTATTTATAT [XGTACX_site7458] | 6.14 |
| ATATATATATATTTCGTGCACTGATAATATTATTTT | 9.62 |
| AAGGTGGAAACAATTACACACACACTAAAAAAAAAA [CACACA_site7493] | 6.69 |
| ATATGTAGTTTTTATTGTACGTGTAGAAGAAATAAT [XGTACX_site6608] | 7.05 |
| TTCATTAAAATTATTACACACAGTTCTTCAACCAAA [CACACA_site3504] | 6.36 |
| TTTTAAACAGGACACACACACATATAGATTTATATA [CACACA_site6560] | 6.98 |
| AATGATTTTCAATCGAAATGAAACTTAGAAGATATA [CACACA_negctrl_site1475] | 6 |
| TATTTTTAAACAAAACTGTATTTATTTTTTAAAATT [CACACA_negctrl_site1449] | 5.92 |
| TTTTGTTATTTTTGTATGCACTACATATTATTATAT | 8.89 |
| TAGTTTTTTATATATTGTACAAATGATATATTATAT [XGTACX_site1002] | 6.64 |
| AAACTTTTTTTAAAAACACACATATAGATTTATATA [CACACA_site7842] | 6.48 |
| GAAATTAAAAAATTTATGCACACTTTAAAAAAAAAA [CACACA_site3769] | 9.28 |
| ATATATATATATAATTGTACATTTTTATGTTTTATA [XGTACX_site4560] | 8.99 |
| AAATAAAATAATAAAACATGCAAAAATAATGATTTA [TGCATGCA_site415] | 6.72 |
| ATAAAGATTAACAAAGTGCATTTATATATATAATCT [GTGCAC_site9407] | 7.59 |
| CCCAAAAAATATCATAGTACTCAACATGACTACTAT [XGTACX_site7838] | 6.32 |
| TTTTTGTTAACAATGGGTACAAAAAAAAGGAAAATA [XGTACX_site7466] | 6.56 |
| AATTTTGTATAGGTATCACACATGAAATATATTATT [CACACA_site5526] | 6.3 |
